Drawing on the RNAGym collection of RNA variant scans (doi:10.1093/nar/gkz1192), this text covers self-cleavage for 34 variants.

The labels stand for the following.
B1: CPEB3 Ribozyme (parent)
chain: UAACAGGGGGCCACAGCAGAAGCGUUCACGUCGCAGCCCCUGUCAGAUUCUGGUGAAUCUGCGAAUUCUGCUGUAUAUCUC

Read counts are not given, so values of variants with three or more changes are uncertain.

The variants in this series derive from B1. Nature of the series: self-cleavage, relative activity (ratio to wild type); higher = more cleavage; in vitro, sequencing. An outline of the steps: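 Barcoded CPEB3 ribozyme mutants, produced by rounds of error-prone PCR, self-cleaved while being transcribed with T7 RNA polymerase for 5 hours at 37°C and during a subsequent 15 min DNase I step before EDTA was added. Sequencing of template-switched cDNA on Illumina gave cleaved and total reads, and DNA sequencing assigned barcodes to variants. Each variant's relative activity is its cleaved/total read fraction divided by the unmutated ribozyme's fraction, averaged across three batches. A variant needed a minimum of 5 reads.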
For UAACUGGGGGCCACAGCAGAGGCGCUCACGUCGCAGCCCCUGUCAGAUUCCGAUGAAUCUGCGAAUUCUGCUGUAUAUCUC [A5U A21G U25C U51C G53A], the self-cleavage is 0.31.
UAACUGGGGGCCACAGCAGAGGCGCUCACGUCGCAGCCCUUGUCAGAUUCUGGUGAGUCUGCGAAUUCUGCUGUAUAUCUC [A5U A21G U25C C40U A57G]: the self-cleavage came out at 0.06.
The same measure for UAACUGGGGGCCACAGGAGAGGCGUUCGCGUCGCUGCCCCUGUCAGAUUCUGGUGAAUCUGCGAAUUCUGCUGUAUAUCUC [A5U C17G A21G A28G A35U]: 0.11; for UAACUGGGGGCCACAGCAGAAGCGUUCACGUUGCAGCCCCUGUCAGAUUCUGGAGAAUCUGCGAAUUCUGCUGUAUAUCUC [A5U C32U U54A]: 0.13; for UAACUGGGGGCCACAGCAGAAGCGUUCACGUCGCCGCCCCUGUCAGAUUCUGGUGGAUCUGCGAAUCCCUCUGUAUAUCUC [A5U A35C A56G U67C U69C G70U]: 0.2.
Consider UAACUGGGGGCCACAGCAGAAGCGUUCACGUCGCAGCCCCUGUCAGGUUCUGGUGAAUCCGCGAAUUCUGCUGUAUAUCUC [A5U A47G U60C], for which the self-cleavage is 0.46.
For UAACUGGGGGCCACAGCAGAAGCGUUCACGUCGCGGCCCCAGUCGGAUUCUGGUGAAUCUGCGGAUUCUGCUGUAUAUCUC [A5U A35G U41A A45G A64G] the value was 0.5; for UAACUGGGGGCCACAGCAGAAGCGUUCUCGUCGCAGCCCCUGUCAGAUUCUGGUGAAUCCGCGAAUUCUGCUGUAUAUCUC [A5U A28U U60C], 0.83; for UAACUGGGGGCCACAGCAGAAGCGUUCUCGUCGCAGCCCCUGUCAGAUUCUGGUGAAUCAGCGAAUUCUGCUGUAUAUCUC [A5U A28U U60A], 0.44.
For the variant UAACUGGGGGCCACAGCAGAUGCGUUCACGUCGCAGCCCCUGUCAGAUUCUGGUGAACCUGCGAAUUCUGCUGUAUAACUC [A5U A21U U58C U78A], the self-cleavage was 0.11.
For the variant UAACUGGGGGCCACAGCAGAAGCGUUCACGUCGCAGCCCCUGUCUGAUUCUGGUGAAUCUGCGAAAUCUGCUGUAUAUCCC [A5U A45U U66A U80C], the self-cleavage was found to be 0.23.
The same measure for UAACUGGGGGCCACAGCAGAGGCGUUCACGUCGCAGCCCCUGUCAGAUUCUGGUGAAUCUGCGAACCCUGCUGUAUAUCUC [A5U A21G U66C U67C]: 0.25; for UAACUGGGGGCCACAGCAGAAGCGUUCUCGUCGCAGCCCCUGACAGAUUCUGGUGAAUCUGCGAAUUCUGCUGUAUAUCUC [A5U A28U U43A]: 1.03; for UAACUGGGGGCCACAGCAGAAGCGUUCUCGUCGCAGCCCCUGCCAGAUUCUGGUGAAUCUGCGAAUUCUGCUGUAUAUCUC [A5U A28U U43C]: 0.75.
For UAACUGGGGGCCACAGCAGAAGCGUUGACGUCGCAGCCCCUGUCGGAUUCUGGUGAAUCCGCGAAUUCUGCUGCAUAUCUC [A5U C27G A45G U60C U74C] the value was 0.15.
For UAACUGGGGGCCACAGCAGAAGCGUUCACGUCGCGGCCCCUGUCAGAUUCUGGUGAAUCUACGAAUUUCGCUGCAUAUCUC [A5U A35G G61A C68U U69C U74C] the value was 1.21.
In the case of UAACUGGGGGCCACAGCAGUGGCGUUCACGUCGCAGCCCCUGUCAGAUUCUGGUGAACCUGCGAAUUCUGCUGUAUAUCUC [A5U A20U A21G U58C], the self-cleavage turned out to be 0.27.
The same measure for UAACUGGGGGCCACAGUAGAAGCGUUCACGUCGCAGCCCCUGUCAAAUUCUGGUGAAUCUGCGAAUUCUGCUGUAUAUCUC [A5U C17U G46A]: 0.31; for UAACUGGGGGCCACAGCAGAAGCGUUCUAGUCGCAGCCCCUGUCAGAUUCUGGUGAAUCUGCGAAUUCUGCUGUAUAUCUC [A5U A28U C29A]: 0.45.
Take UAACUGGGGGCCACAGCAGAAGCGUUCACGUCGCGGCCCCUGUCGGAUUCCGGUGAAUCUGCGAAUUCAGCUGUAUAUCUC [A5U A35G A45G U51C U69A]: the self-cleavage was found to be 1.08.
On to UAACUGGGGGCCACAGCAGAAGCGUUCACGUCGCGGCCCCUGUCAGAUUCUGGUGAAUCAGCGAAUUCUGCUGUAUGUCUC [A5U A35G U60A A77G], for which the self-cleavage was 0.84.
As to UAACUGGGGGUCACAGCAGAAGCGUUCACGUCGCAGCCCCUGUCAGAUCCUGGAGAAUCUGCGAAUUCUGCUGUAUAUCUC [A5U C11U U49C U54A], the self-cleavage came out at 0.11.
Take UAACUGGGGGCCACAGCAGAAGCGUUCACGUCGCGGCCCCUGUCAGGUUCUGGUGAAUCUGCGAAUUCUGCUGUAUAUCUC [A5U A35G A47G]: the self-cleavage stood at 1.42.
As to UAACUGGGGGUCACAGCAGAAGCGUUCACGUCGCAGCCCCUGUCAGAUUCUGGUGGAUCUGCGAAUUCUGCUGUAUAUCUC [A5U C11U A56G], the self-cleavage amounted to 0.4.
The same measure for UAACUGGGGGUCACAGCGGAAGCGUUCACGUCGCAGCCCCAGUCAGAUUCUGGUGAAUCUGCGGAUUCUGCUGUAUAUCUC [A5U C11U A18G U41A A64G]: 0.12; for UAACUGGGGGUUACAGCAGAAGCGUUCACGUCGCAGCCCCCGUCAGAUUCUGGUGAAUCUGCGAUUUCUGCCGUAUAUCUC [A5U C11U C12U U41C A65U U72C]: 0.21; for UAACUGGGGGCCACAGCAGAAGCGUUCACGUCGCAGCCCCUGUCAGAUUCUGGUGAAUCUGCGUAUUCUGGUGUAUAUCUC [A5U A64U C71G]: 0.37.
Turning to UAACUGGGGGCCACAGCAGAAGCGUUCUCGUCGCAGCCCCUGUCAGAUUAAGGUGAAUCUGCGAAUACUGCUGUAUAUCUC [A5U A28U C50A U51A U67A], the self-cleavage was 0.29.
The same measure for UAACUGGGGGCCACAGCAGAAGCGUUCACGUCGCGGCCCCAGUCUGAUUCUGAUGAAUCUGCGAAUUCUGCUGUAUAUCUC [A5U A35G U41A A45U G53A]: 0.29; for UAACUGGGGGCCACAGCAGAAGCGUUCACGUCGCAGCCCCUGUCAGAUUCUGGUGAGUAUGCGAAUUCUGCCGUAUAUCUC [A5U A57G C59A U72C]: 0.29; for UAACUGGGGGCCACAGCAGAGGCGUUCACGUCGCAGCCCCUGUCAGAUUCUGGUGAAUCUGCGAAUUCUGCUGUAUGUCUC [A5U A21G A77G]: 0.59.
Regarding UAACUGGGGGCCACAGCAGUAGCGUUCACGUCGCAGCCCCUGUCAGACUCUGGUGAAUCUGCGAAUUCUGCUGUAUAUCUC [A5U A20U U48C], the self-cleavage stood at 0.13.
For UAACUGGGGGCCACAGCAGAAGCGUUCACGUCGCAGCCCCUGUCAGAUUCUGGUGGAUCAGCGAAUUCUGCUGUACAUCUC [A5U A56G U60A U76C] the value was 0.69; for UAACUGGGGGCCACAGCAGUAGCGUACACGUCGCAGCCCCUGUCAGAUUCAGAUGAAUCUGCGAAUUCUGCUGUAUAUCAC [A5U A20U U26A U51A G53A U80A], 0.42.
